Screen size: about 16,000 compounds; about 120 (0.75%) were called active. Roughly 4% stayed inconclusive and do not appear here. Calls come from the whole dose curve; as a rule, active = well fitted inhibition curve with a large enough effect; inconclusive = small, poorly fitted or top-dose-only effect; inactive = no such curve, though single readings can be large or run the other way. The list shows a part of the results.
Molecular target: Rap guanine nucleotide exchange factor 3 (Homo sapiens) (UniProt O95398)
Sequence of UniProt O95398 (O95398 whole entry, looked up): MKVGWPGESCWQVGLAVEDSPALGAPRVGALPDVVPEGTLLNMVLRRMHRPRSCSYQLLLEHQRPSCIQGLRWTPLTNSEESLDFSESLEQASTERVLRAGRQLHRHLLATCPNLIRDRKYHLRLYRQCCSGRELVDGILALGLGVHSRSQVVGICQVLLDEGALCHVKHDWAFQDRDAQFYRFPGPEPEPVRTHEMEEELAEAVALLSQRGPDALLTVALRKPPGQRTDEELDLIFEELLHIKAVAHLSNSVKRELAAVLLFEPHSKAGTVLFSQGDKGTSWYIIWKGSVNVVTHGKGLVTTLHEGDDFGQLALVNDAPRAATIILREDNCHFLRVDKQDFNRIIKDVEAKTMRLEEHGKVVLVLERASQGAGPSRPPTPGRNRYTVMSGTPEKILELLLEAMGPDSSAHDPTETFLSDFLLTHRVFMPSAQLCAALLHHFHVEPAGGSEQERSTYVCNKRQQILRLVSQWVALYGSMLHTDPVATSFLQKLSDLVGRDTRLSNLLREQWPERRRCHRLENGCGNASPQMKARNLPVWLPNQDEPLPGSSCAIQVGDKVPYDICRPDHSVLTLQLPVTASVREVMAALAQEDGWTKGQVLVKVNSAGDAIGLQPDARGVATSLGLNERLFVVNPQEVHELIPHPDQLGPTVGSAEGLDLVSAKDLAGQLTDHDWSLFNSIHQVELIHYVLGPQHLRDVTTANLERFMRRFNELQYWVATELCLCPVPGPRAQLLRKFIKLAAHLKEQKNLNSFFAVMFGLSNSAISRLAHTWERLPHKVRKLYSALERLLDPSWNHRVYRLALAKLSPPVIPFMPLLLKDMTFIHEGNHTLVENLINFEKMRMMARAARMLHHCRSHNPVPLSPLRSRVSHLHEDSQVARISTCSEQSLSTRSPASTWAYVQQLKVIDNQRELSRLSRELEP
Experiment: Validation qHTS for antagonist of cAMP-regulated guanine nucleotide exchange factor 3 (EPAC1);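 note: plate controls were DMSO for no effect and ATA control for full effect; nearly all actives have a fitted effect of over 75% in size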
Conditions: EPAC1 Rap1B-BODIPY-GDP exchange, fluorescence; series mostly up to 150 µM; activity change, negative = inhibition: at the top concentration
Method in brief: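 EPAC1 (100 nM) mixed with 250 nM RAP1B-BODIPY-GDP and 50 uM GDP; compounds in concentration series, 5 min at room temperature. Fluorescence (ex 480/em 540 nm) read every 5 min for 30 min; normalized to ATA control and DMSO.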

Activity change, negative = inhibition, inactive:
COc1ccccc1N1CCN(CCN2C(=O)c3ccccc3C(C)(C)C2=O)CC1
COc1ccc(CN2[C@@H](CC(=O)O)c3ccccc3S2(=O)=O)cc1 4.57%
COc1ccc(-c2nc3cnc(N4CCOCC4)nc3n(Cc3cccs3)c2=O)cc1 -0.691%
CC(=O)O[C@H]1CC[C@@]2(C)C(=CC[C@@H]3[C@@H]2CC[C@]2(C)C(c4cccnc4)=CC[C@@H]32)C1 29.3%
O=C(O)c1ccc(OCCCOc2ccc(C(=O)O)cc2)cc1 22.1%
Cc1cccc(C)c1NC(=O)CC12CCCN1CCC2 10.7%
CCc1cc(C(=O)NCC2Cc3cc(-c4ccccc4C(C)=O)ccc3O2)no1 (centres undefined) 13.2%
COc1ccc(C(=O)N2CCC3(CC2)CN(c2ccncc2)C3)cc1 10%
Cc1ccc2ccccc2[n+]1CCCCI 23.5%
O=C(c1ccccc1)c1ccc(Cn2cc(-c3ccccc3)nn2)cc1 2.27%
COc1ccc(OC)c2c(/C=C/c3c(C)[nH]c4ccccc34)ccnc12 8.38%
NC(=S)NCCC[C@H](N)C(=O)O
COc1cccc(-c2cc(NCc3cccnc3)ncn2)c1 11.5%
CCNc1ncc2nc(C)c(=O)n(Cc3cccc(OC)c3)c2n1 21.6%
Cc1ccc2c(c1)CN(CCNC(=O)c1c(-c3ccccc3)noc1C)CC(C)O2 (centres undefined) 21.7%
CC(C)NC(=O)N1CCCC2(CCN(C(=O)c3cccn3C)CC2)C1 16.2%
CCc1nc2cc(C(=O)NCC3CCS(=O)(=O)C3)cc(NC(=O)c3ccccc3OC)c2n1C (centres undefined) 28.3%
CC(C(=O)O)c1ccc2c(c1)[nH]c1ccc(Cl)cc12 (centres undefined) 14.2%
O=C(c1cccc(Cn2cccn2)c1)N1CCC(n2c(C3CCCO3)nc3cc(C(F)(F)F)ccc32)CC1 (centres undefined) 7.59%
CC1CC[C@@]2(OC1)OC1CC3C4CC[C@@H]5CC(O)CC[C@@]5(C)C4CC[C@]3(C)C1C2C (some centres undefined) 13.9%
CC(=O)OC(C)(C)C1Cc2cc3ccc(=O)oc3cc2O1 (centres undefined) 9.85%
CC(=O)N1CCC2(CC1)CCN(c1ccncc1)CC2 11.1%
O=C(C[n+]1csc2ccccc21)c1ccccc1 0.469%
CCCCc1cc2ccccc2c(OCCN(C)C)n1 4.28% [at 75.8 µM]
C/C=C(/CC[C@@H](C)[C@H]1CC[C@H]2C3=CC[C@H]4[C@H](C)[C@@H](O)CC[C@]4(C)[C@H]3CC[C@]12C)C(C)C 16.2%
CO/N=C(\C(=O)N[C@@H]1C(=O)N2C(C(=O)O)=C(CSc3nnnn3C)CS[C@H]12)c1csc(N)n1 24.9%
O=c1c(-c2cc(F)cc(F)c2)nc2cncnc2n1-c1ccccc1 10.3%
CCC(C(=O)NC(=O)NC(C)=O)c1ccccc1 (centres undefined) 23.6%
Cc1cccc(C)c1NC(=O)C(C)N (centres undefined)

Source: PubChem BioAssay AID1645882 (National Center for Advancing Translational Sciences (NCATS), 2021)
